± gives the standard deviation of the averaged measurements. This is one part of the list.
test system: PfAP2-LT AP2 domain (GST-tagged); assay: gcPBM binding intensity (ln(normalized median fluorescence intensity)); higher = stronger DNA binding
In short: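 Plasmodium falciparum DNA-binding domains carrying a GST tag were expressed in E. coli and applied for 1 h, at about 25 μg on average, to an Agilent 4 × 180k array. The array held primer-extended double-stranded 36-bp intergenic genomic probes together with negative controls, and binding took place in 1× PBS with 1% milk, 0.2 mg/ml BSA, 0.5% salmon testes DNA and 0.03% Triton X-100. An Alexa488 anti-GST antibody detected bound protein, and the array was scanned at 488 nm. Binding intensity is taken as the highest Masliner-normalised natural-log median intensity across replicate spots of either probe orientation.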

| Sequence | gcPBM binding intensity (ln) |
| --- | --- |
| AAACAATTTATGTGTAGTACATGTTGGAGATAATTT [XGTACX_site6000] | 8.88 ± 0.36 |
| GAAAATATATTATTTACACACATGTTCAAATTAAAA [CACACA_site3761] | 8.71 ± 0.41 |
| TATTAAATATAAGTCACACATAATTTTTCGTCCTTT [CACACA_site5065] | 8.7 ± 0.52 |
| CATACACCCGGACACACACACACACCCATATATAAT [CACACA_site4494] | 10 ± 0.35 |
| TTGTTTTTTTCTTTTTGTACATATACAACATACATA [XGTACX_site8996] | 8.81 ± 0.54 |
| TAATAAAAGATATATACACACAAATAAATAAATAAA [CACACA_site7818] | 8.97 ± 0.53 |
| ATAATATAAACATATTGTACACATATATTGCTATTT [XGTACX_site2799] | 8.95 ± 0.42 |
| AAAAAAAAATATATATATATATATATAAATAAATTT [CACACA_negctrl_site519] | 9.09 ± 0.38 |
| AAATATAAAAAAAATATATAATTTTTACATCGAATT [CACACA_negctrl_site544] | 8.38 ± 0.49 |
| AACGAGCAAGACGGGGTGCACACAAACTAATATGCC [GTGCAC_site9436] | 9.55 ± 0.39 |
| TTATTATTGTTATGTTGTACTTTTACAAACTTTTTG [XGTACX_site8797] | 8.73 ± 0.44 |
| TTCTATGAATTCATAGTGCAAATGAGTTATTTTTTC [GTGCAC_site9709] | 8.49 ± 0.42 |
| AAGAAAATAGGGTTCATAGGATTATACTTTTGGAAT [TGCATGCA_negctrl_site80] | 8.59 ± 0.54 |
| TATTTTATCTAAGGATGTACATTATTAAGAAAATGT [XGTACX_site6123] | 8.32 ± 0.38 |
| ATATATTTATTAAGGTGTACAAAAATTATGTTGCAT [XGTACX_site7546] | 8.65 ± 0.4 |
| CTTTTTTAAATTATTGCACACAAAAATGAAAGGAAA [CACACA_site8412] | 8.69 ± 0.41 |
| ACATCAAGCAGACACACACACACACCCACCCACCGA [CACACA_site371] | 10.4 ± 0.11 |
| TAGAAATATAATTAATGTACATATGATATTATATAT [XGTACX_site923] | 8.62 ± 0.42 |
| ATTTATTTATATAGAAGTACATATTTATTTATATAT [XGTACX_site6283] | 8.52 ± 0.42 |
| CGATTACTAATTTTTAGTACATATAATCAATATGTA [XGTACX_site7857] | 8.4 ± 0.42 |
| ATCTATTTCTATTGTTGTACTTATTTTTCATTGTTT [XGTACX_site6942] | 9.3 ± 0.44 |
| ATGTAGCCTTACGCTTGTACGAATATCTTAATTTTT [XGTACX_site4331] | 8.78 ± 0.4 |

| Sequence | gcPBM binding intensity (ln) |
| --- | --- |
| AAAAAAAATAGACACACACACATACACATAAATATA [CACACA_site7742] | 9.82 ± 0.38 |
| AGGGTTACAAGAGGAACACACAAAAAAATAAATAAA [CACACA_site1436] | 9.02 ± 0.71 |
| TTTGTAATAAACTACTTTTTTTTTTTTTTTTTTTTT [CACACA_negctrl_site571] | 8.495 ± 0.078 |
| ATTAAATCTATATATACACACATGTTTGGTATATTC [CACACA_site2657] | 9.22 ± 0.33 |
| TTTATATTACAATAATATATTAAAAAATAAAATATA [TGCATGCA_negctrl_site18] | 8.16 ± 0.54 |
| ATTTTTTTATTTGATTGTACAATTTTCTTTCAAAAT [XGTACX_site2902] | 8.76 ± 0.36 |
| TATACAATATAAAATACACACGCACCCAAAAAAAAA [CACACA_site9174] | 9.44 ± 0.27 |
| ATATAATGTGTAGGCCGTATTTACGTTTGGCAATCA [CACACA_negctrl_site1130] | 8.99 ± 0.56 |
| TATAATATAATATATATATATATATATATATAAGAA [CACACA_negctrl_site78] | 8.96 ± 0.36 |
| TTCATATAAATACATGCACACAAAAATATCAATACA [CACACA_site8753] | 9.12 ± 0.33 |
| ATATATTTTATTACCAGTACATATATTAAAATAATA [XGTACX_site8440] | 8.39 ± 0.38 |
| ATTAAAGAGATATATACACACATTATGGGGGAATAA [CACACA_site6226] | 9.12 ± 0.36 |
| ATAGAAATTATAAATAGTACATAATAAAAATGAGCA [XGTACX_site822] | 8.94 ± 0.58 |
| CCTAAATATTTTTTATGTACATATTTATCTAAATTT [XGTACX_site6835] | 8.7 ± 0.54 |
| TGAGGAAACATGAGATGTACATATAAATTTTTTTTT [XGTACX_site2595] | 8.78 ± 0.58 |
| TATTATAAAGAAATTACACACATGCAATGAAAAAAA [CACACA_site1697] | 8.96 ± 0.45 |
| TCGTTTCCTTAAAATTGTACTTTTTTTTTTTTTTTT [XGTACX_site64] | 8.57 ± 0.54 |
| AGAGTATATATATATGCATGCATATCTCATATTTAT [TGCATGCA_site509] | 9.24 ± 0.4 |
| TGTTATTATTTGTACACACACATATAGATCCTTGTT [CACACA_site7667] | 9.54 ± 0.33 |
| TAATGATAAATACATACACACAAAAAATAATATATA [CACACA_site2576] | 9.13 ± 0.47 |
| AAACAAAATGGTAACACACACATATATAAATATGTA [CACACA_site6994] | 9.38 ± 0.47 |
| TAAGAAATAAATAGTACACACATAGACACCCACCCA [CACACA_site8429] | 10.1 ± 0.28 |

| Sequence | gcPBM binding intensity (ln) |
| --- | --- |
| TCATAGTATGGACACACACACACACCCATATATATA [CACACA_site5033] | 10 ± 0.25 |
| TATTATATTAATGATGGTACAGTGTATATATATAAT [XGTACX_site1286] | 8.71 ± 0.43 |
| TTGGGTCAAACATAAACACACACAAAAAGAAAAAAT [CACACA_site8328] | 9.34 ± 0.52 |
| ACATATAATATAAAGTGTACAAGAAAATAAAAATAA [XGTACX_site1273] | 9.09 ± 0.53 |
| TTTCCATATTTTTAAAGTACATATTTCCGTTTCCAC [XGTACX_site7832] | 8.67 ± 0.54 |
| GGGATATTTTAAAGGGTGCATATTATTAAAATAATG | 8.61 ± 0.35 |
| TTATTTGATTACTTGCGTACTTATTTCATATTTTTT [XGTACX_site6648] | 9.14 ± 0.47 |
| ATGAGAAAACATAAAAGTACAAAAAGAAAAAAAAAA [XGTACX_site6020] | 8.84 ± 0.53 |
| TTTATTTTATAATTCACACATATATACCTATTTTAT [CACACA_site5709] | 8.85 ± 0.4 |
| TAAACAGACATATAAACACACATATAAACAGACATA [CACACA_site7214] | 9.31 ± 0.41 |
| GTGTGGTGCTCGAGGAGTACAAACAATATGTAATTT [XGTACX_site4160] | 8.99 ± 0.58 |
| AATATAAGTAATTATACACACTTAATATTTATATAC [CACACA_site7334] | 8.82 ± 0.42 |
| TTTTCTTCCTATTATTGTACATATAGTATTCTTTCA [XGTACX_site4428] | 8.87 ± 0.49 |
| TAATAATAAACAACCACACACAAAAAAACAAAAAAA [CACACA_site3269] | 9.4 ± 0.36 |
| ATTTAATTATGTAAGTGTACTTTGGAATATAATATT [XGTACX_site3186] | 8.56 ± 0.38 |
| GTAGCACATATATATTGTACATAATATATACATTAT [XGTACX_site6354] | 8.95 ± 0.3 |
| TTAAAATTCAAAAAAAAAAATCAGAATATCAGAAAA [CACACA_negctrl_site1361] | 8.29 ± 0.43 |
| TATATAACATAATATACACACATTATATGCGTAATT [CACACA_site6098] | 9.03 ± 0.27 |
| GATATATAAATAAATACACACATAAAATAGAAATAT [CACACA_site6881] | 9.19 ± 0.4 |
| ATTAAAGAAATATATACACACATTATGGGGGAATAA [CACACA_site178] | 9.05 ± 0.4 |
| GTTAGGATAGATTAGACATGCACATAAATGCACTTC [TGCATGCA_site561] | 8.75 ± 0.49 |
| TTTTTATAGAATTTAACACACATTTCATATAAAAAA [CACACA_site7453] | 8.29 ± 0.31 |

| Sequence | gcPBM binding intensity (ln) |
| --- | --- |
| TATATGCTATAATATACACACATACCTATATTTATA [CACACA_site6383] | 9.04 ± 0.45 |
| AATTTAAGCAGAACATATATATATATATATATAAAG [CACACA_negctrl_site769] | 9.53 ± 0.27 |
| AATTATTTCTTTTACACATGCAATATTTAATTAAAA [TGCATGCA_site598] | 8.37 ± 0.42 |
| TTTAAATGCTTTTTGTGGTGACTTATCCTTTCATAA [XGTACX_negctrl_site109] | 8.63 ± 0.49 |
| ACATATTAAAATATATGTACATAAAATATGAAAAAA [XGTACX_site5869] | 8.96 ± 0.47 |
| ATATTTATTCCTTTTGGTACACAAAAAAAAAAAAAA [XGTACX_site8126] | 8.33 ± 0.37 |
| GTAATAAATTAAATATGTACATATTAAAATTAAGGA [XGTACX_site2290] | 8.85 ± 0.54 |
| ATTGATACATCCAATACACACTACAGATAATGATGT [CACACA_site5098] | 9.16 ± 0.32 |
| GAATTAATTTTAAAACGTACATGGGTGTATTTACAC [XGTACX_site5939] | 8.71 ± 0.38 |
| TTCTTTTTTGTAATAACACACACACTAACAGAAAAA [CACACA_site8646] | 9.16 ± 0.4 |
| CATAATACAAATGTGATACCTGAAAATGACTTATTA [CACACA_negctrl_site994] | 8.78 ± 0.49 |
| TGCTACATAATATGTACACACATATACATATTTATA [CACACA_site6545] | 8.98 ± 0.37 |
| GTATGATTAAATAAAGGTACACTTATATTTATTTAT [XGTACX_site6966] | 8.56 ± 0.45 |
| TATCACATTTATGAGAGTACATAATTAATTCATGAT [XGTACX_site7850] | 8.63 ± 0.4 |
| TTTTATTTTATATAACAACAAAATGGAAATATATAT [GTGCAC_negctrl_site71] | 8.3 ± 0.48 |
| GTCAATATTTAGATATGTACTAAGGAGTGCTATATA [XGTACX_site222] | 8.77 ± 0.51 |
| ATATTATGAAGGGATATTTTCAAAAATATTAGGAGA [CACACA_negctrl_site942] | 8.49 ± 0.49 |
| TAAATGAAAATAAATTAACACACAATTTTAATATTG [CACACA_site8360] | 8.62 ± 0.46 |
| AATTATACATATATTTAACACACATTTTATAAAGTG [CACACA_site8362] | 8.81 ± 0.32 |
| ATATATATATATAATTGTACATGTGTGTATAATTTG [XGTACX_site2417] | 9.38 ± 0.18 |
| ATACAACAGATATATACACACATATAACAATAATAA [CACACA_site7560] | 9.38 ± 0.43 |
| TTGGAATAATATAAATAAATAAATATATATATATAT [CACACA_negctrl_site900] | 8.91 ± 0.092 |

Reference: the supplement of paper PMC11417369
